Results: patent publication US20050002904A1 (published 2005)

How the values were obtained:
Assay in all cases: solid-phase ligand binding ELISA, integrin immobilized
soluble α5β1 integrin = target: T1, soluble α5β1 integrin (UniProt P08648; P05556)
T1 construct: also called α5β1 integrin heterodimer

soluble α2β1 integrin = soluble α2β1 integrin (UniProt P17301 30-1132; P05556)
soluble αvβ5 integrin = soluble αvβ5 integrin (UniProt P06756 31-992; P18084 24-719)

Measured: binding result

Chain of soluble α5β1 integrin (P08648 42-995, chain 1 of 2): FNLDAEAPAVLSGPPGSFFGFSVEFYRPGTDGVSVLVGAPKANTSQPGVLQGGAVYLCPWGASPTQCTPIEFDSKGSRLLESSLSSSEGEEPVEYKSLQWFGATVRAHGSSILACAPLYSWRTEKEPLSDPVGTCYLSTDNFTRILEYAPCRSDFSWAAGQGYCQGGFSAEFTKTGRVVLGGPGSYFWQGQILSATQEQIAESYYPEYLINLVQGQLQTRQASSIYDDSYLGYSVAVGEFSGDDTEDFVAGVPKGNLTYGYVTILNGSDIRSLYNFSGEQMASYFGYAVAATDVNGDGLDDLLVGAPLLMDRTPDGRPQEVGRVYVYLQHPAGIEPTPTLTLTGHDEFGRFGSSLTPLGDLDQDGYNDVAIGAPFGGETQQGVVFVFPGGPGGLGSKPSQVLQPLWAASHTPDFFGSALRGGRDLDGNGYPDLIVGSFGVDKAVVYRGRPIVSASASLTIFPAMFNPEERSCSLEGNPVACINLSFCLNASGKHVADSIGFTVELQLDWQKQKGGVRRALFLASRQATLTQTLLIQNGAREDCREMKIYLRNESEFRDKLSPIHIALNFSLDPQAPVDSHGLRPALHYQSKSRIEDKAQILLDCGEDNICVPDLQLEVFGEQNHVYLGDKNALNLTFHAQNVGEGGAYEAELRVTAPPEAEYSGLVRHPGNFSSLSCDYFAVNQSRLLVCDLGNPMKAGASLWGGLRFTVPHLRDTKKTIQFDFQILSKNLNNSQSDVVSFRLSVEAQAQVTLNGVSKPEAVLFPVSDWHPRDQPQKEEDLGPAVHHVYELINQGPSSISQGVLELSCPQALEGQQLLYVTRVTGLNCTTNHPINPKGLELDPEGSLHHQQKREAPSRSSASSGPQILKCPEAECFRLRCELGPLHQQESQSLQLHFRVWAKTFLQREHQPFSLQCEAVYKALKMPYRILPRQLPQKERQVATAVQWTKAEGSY
Chain of soluble α5β1 integrin (P05556 21-728, chain 2 of 2, further chain): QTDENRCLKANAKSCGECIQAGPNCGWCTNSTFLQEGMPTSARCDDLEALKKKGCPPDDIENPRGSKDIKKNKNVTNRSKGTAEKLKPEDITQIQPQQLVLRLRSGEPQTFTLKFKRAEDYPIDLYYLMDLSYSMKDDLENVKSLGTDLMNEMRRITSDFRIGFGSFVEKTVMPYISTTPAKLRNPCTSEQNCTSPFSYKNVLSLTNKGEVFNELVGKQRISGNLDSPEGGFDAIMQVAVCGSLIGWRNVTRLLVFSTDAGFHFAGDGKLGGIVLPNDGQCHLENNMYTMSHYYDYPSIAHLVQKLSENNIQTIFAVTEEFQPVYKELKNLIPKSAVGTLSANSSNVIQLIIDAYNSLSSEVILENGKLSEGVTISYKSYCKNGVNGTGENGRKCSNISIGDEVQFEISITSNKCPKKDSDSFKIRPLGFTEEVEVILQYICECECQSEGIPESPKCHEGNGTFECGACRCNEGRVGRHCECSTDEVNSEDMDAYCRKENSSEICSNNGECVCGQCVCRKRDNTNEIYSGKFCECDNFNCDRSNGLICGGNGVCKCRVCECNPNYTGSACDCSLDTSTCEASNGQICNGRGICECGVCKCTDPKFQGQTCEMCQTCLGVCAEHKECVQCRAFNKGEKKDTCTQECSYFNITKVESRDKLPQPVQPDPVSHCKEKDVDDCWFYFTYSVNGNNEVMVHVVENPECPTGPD
Chain of soluble αvβ5 integrin (P06756 31-992, chain 1 of 2): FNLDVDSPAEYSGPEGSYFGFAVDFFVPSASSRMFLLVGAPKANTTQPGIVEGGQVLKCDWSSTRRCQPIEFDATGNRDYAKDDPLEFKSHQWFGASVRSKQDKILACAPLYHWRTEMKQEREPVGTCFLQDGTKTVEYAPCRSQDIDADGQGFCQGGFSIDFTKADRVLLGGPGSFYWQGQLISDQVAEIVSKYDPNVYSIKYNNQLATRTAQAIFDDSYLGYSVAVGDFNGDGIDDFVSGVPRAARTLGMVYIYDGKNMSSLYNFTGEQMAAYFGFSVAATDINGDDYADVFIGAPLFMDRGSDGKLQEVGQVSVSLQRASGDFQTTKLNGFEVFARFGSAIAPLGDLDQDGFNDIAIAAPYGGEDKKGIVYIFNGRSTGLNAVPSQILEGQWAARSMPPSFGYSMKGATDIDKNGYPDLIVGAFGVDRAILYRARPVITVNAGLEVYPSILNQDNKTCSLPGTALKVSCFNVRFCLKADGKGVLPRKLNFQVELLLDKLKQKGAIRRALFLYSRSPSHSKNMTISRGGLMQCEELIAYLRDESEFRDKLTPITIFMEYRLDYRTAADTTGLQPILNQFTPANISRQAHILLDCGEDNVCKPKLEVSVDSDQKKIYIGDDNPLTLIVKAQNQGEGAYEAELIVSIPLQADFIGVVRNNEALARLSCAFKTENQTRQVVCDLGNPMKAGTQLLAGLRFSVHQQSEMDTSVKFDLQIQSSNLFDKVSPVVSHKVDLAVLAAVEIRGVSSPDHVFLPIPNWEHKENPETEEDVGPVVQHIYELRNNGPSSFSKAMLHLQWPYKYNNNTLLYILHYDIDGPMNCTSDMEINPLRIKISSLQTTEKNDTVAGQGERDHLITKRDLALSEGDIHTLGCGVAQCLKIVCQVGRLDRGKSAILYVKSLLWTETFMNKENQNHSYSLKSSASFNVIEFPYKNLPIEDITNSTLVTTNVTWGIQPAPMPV
Chain of soluble αvβ5 integrin (P18084 24-719, chain 2 of 2, further chain): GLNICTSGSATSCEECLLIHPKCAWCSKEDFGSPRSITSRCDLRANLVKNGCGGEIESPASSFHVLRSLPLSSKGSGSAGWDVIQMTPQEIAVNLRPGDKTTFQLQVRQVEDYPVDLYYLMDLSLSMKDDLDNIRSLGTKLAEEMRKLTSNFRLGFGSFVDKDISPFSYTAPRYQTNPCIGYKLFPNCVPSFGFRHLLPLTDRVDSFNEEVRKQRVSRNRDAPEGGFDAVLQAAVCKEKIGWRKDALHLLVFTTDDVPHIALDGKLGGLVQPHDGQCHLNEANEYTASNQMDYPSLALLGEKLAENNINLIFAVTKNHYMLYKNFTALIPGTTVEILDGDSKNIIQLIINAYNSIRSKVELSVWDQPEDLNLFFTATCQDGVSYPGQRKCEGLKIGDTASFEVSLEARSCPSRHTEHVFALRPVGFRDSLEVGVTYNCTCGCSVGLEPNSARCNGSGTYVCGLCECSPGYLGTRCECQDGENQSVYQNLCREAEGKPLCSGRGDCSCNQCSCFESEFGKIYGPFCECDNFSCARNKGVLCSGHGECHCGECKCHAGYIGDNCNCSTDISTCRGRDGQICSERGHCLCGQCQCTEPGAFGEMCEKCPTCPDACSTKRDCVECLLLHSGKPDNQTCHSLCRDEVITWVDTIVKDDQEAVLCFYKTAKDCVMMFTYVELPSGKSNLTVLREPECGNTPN
Chain of soluble α2β1 integrin (P17301 30-1132, chain 1 of 2): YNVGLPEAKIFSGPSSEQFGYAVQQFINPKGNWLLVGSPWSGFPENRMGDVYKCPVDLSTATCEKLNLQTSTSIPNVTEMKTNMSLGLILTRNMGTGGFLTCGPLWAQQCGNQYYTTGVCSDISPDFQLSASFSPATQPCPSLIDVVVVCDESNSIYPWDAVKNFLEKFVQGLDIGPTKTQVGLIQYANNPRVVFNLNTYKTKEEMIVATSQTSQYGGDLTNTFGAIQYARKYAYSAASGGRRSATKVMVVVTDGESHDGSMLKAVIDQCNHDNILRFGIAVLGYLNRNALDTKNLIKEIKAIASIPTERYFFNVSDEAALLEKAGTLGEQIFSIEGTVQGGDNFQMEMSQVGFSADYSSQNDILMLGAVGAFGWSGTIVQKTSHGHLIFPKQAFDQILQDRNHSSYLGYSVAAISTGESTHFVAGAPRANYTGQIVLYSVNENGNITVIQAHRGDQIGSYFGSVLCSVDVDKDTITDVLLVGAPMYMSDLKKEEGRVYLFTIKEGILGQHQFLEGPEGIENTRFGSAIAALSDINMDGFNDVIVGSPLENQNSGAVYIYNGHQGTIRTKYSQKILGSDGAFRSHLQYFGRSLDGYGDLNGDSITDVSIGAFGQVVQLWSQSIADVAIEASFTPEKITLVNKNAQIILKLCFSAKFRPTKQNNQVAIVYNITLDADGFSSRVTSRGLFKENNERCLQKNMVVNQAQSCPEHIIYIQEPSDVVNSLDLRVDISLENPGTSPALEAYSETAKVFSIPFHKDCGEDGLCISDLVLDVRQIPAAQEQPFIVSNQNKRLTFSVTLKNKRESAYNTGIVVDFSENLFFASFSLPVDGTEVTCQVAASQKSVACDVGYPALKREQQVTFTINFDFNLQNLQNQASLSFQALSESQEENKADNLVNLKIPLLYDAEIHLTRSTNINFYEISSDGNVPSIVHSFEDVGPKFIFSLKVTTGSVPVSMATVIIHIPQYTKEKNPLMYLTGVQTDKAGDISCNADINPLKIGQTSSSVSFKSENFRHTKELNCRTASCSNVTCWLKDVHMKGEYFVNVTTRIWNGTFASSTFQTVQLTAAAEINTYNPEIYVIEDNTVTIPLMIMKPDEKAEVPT
Chain of soluble α2β1 integrin (P05556 21-728, chain 2 of 2, further chain): as the sequence (P05556 21-728, chain 2 of 2, further chain) above

B1: GST alone (other)
chain: not shown
notes: Control ligand in the solid-phase assay
no binding (tested: 50-350 ng per well): all assays above
